Experimental data published in the supplement of paper PMC3334620.
Whole data set: some 33,000 sequences, median “E-score (-0.5 to 0.5)” near -0.035, cut for the highest 2% near 0.34. Some of the results follow.

target: T1, Mot3 (UniProt P54785); test: PBM E-score (8-mer binding enrichment) (E-score (-0.5 to 0.5)); higher = stronger / more preferred TF binding; most listed sequences are background and not binding sites; details: protein concentration: 200 nM; construct: GST-full length
T1 sequence: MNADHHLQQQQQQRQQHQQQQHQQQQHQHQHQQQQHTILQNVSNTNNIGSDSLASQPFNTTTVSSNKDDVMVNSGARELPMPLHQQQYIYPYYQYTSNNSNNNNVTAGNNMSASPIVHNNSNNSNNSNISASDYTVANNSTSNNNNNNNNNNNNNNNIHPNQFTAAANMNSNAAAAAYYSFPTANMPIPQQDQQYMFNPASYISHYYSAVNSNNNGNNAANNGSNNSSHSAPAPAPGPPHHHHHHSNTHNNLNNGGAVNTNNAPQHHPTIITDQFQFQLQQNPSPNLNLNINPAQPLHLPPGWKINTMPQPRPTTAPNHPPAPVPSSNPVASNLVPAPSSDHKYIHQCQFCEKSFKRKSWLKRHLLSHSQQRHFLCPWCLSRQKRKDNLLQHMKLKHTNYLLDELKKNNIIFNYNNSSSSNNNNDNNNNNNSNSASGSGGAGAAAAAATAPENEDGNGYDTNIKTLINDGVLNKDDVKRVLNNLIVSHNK
How it was run: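 Full-length yeast transcription factors or their DNA-binding domains, GST-tagged and expressed with PURExpress, were applied at about 100-200 nM to universal all-10-mer Agilent arrays. These arrays had been made double-stranded by primer extension on fresh or once-stripped slides. Detection used fluorescent anti-GST, normalisation used masliner, and E-scores for ungapped eight-base words pooled with reverse complements came from the Universal PBM Analysis Suite.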

Row | Sequence | PBM E-score
1 | ACTACCCA | -0.0288
2 | CCCCGGGA | -0.15
3 | AGAAGATC | -0.154
4 | CCAGTGCA | -0.167
5 | AGCAACAT | 0.161
6 | CCGAGCTC | -0.0663
7 | GTCGAGGA | -0.0194
8 | ACCATGCC | 0.0668
9 | AACCACAG | -0.0518
10 | TAGATACA | 0.15
11 | AAGGCGTC | 0.121
12 | GCCGTACC | 0.0343
13 | ACGAAATA | 0.0999
14 | CAGGCCGG | -0.169
15 | ATCACTGA | -0.104
16 | CTACTGCA | 0.0194
17 | ATCGTCAG | -0.0478
18 | CAGTCAGG | 0.136
19 | CGCCTGTC | -0.00587
20 | GAAATATA | 0.17
21 | CAAGAGAG | -0.158
22 | ACGCCAAT | 0.0255

Row | Sequence | PBM E-score
23 | CCTCGCAG | -0.145
24 | AATAGACG | -0.138
25 | ATTGTGAG | -0.109
26 | CCTGCCCA | -0.108
27 | CCGTGGAG | -0.397
28 | CAGTCCGA | -0.057
29 | CTGTAAAG | 0.24
30 | CATGCGAA | 0.197
31 | CCCTCATC | -0.139
32 | CCGTCAGC | -0.368
33 | ACCATCAA | -0.0603
34 | CTAATATC | -0.145
35 | GCCAGATA | -0.213
36 | CTCACTAA | 0.063
37 | CTTAGGTC | -0.0764
38 | AGCATACG | -0.107
39 | ATCCCACG | -0.144
40 | CGCTCAGA | 0.0235
41 | CCTTCGGA | 0.126
42 | AGCGCATA | -0.0903
43 | AACTGCCA | -0.336
44 | ACGTCATA | 0.0809

Row | Sequence | PBM E-score
45 | CCTATAGC | 0.0701
46 | CGCCGCTA | -0.306
47 | AGTGCCCA | 0.137
48 | TAAAGCTA | 0.19
49 | GATGGCAA | -0.0931
50 | GGACGGAC | -0.42
51 | AGTCCTTG | -0.124
52 | AATACCGG | 0.0447
53 | ATCGTATC | -0.105
54 | GCAAGAAA | 0.0552
55 | CCGAGACG | -0.0781
56 | CGCAAGAA | -0.0261
57 | AACTGCCG | -0.0686
58 | CATGGGAC | -0.00718
59 | GCACAGTA | -0.0809
60 | CGACTTTC | 0.0333
61 | GCAGGGCC | -0.209
62 | AACGGTCA | -0.214
63 | GTGAAAAC | -0.0457
64 | AGCGAAGC | -0.0443
65 | CAAAAGCA | 0.0722
66 | AAGTTGAC | 0.0257

Row | Sequence | PBM E-score
67 | CATCACCC | -0.298
68 | ACAGCGCT | -0.00816
69 | GGAGCAAC | -0.12
70 | GGGAAACC | -0.00353
71 | AAATCCGG | -0.208
72 | GAACCGAA | -0.027
73 | CCGAGACC | -0.0907
74 | GTACTATA | 0.163
75 | TTAATCAA | 0.205
76 | AACTTACG | 0.273
77 | CAGGAAAC | 0.445
78 | GCTATTAC | 0.234
79 | ACAGTCTA | -0.00671
80 | CCACTTGA | 0.0447
81 | TAGCACTA | -0.168
82 | GGATGCCA | -0.267
83 | GGTCAGTA | -0.141
84 | GGGAATAC | 0.239
85 | GGTGATAA | -0.215
86 | CGGGGCTC | -0.313
